Assay results from patent publication US20200384061A1 (JCR PHARMACEUTICALS, published 2020).

T1: recombinant monkey TfR (r monkey TfR, Sino Biological Inc.), extracellular region of cynomolgus monkey TfR … (cynomolgus monkey (Macaca fascicularis), UniProt Q5RDH6 89-760 (Pongo abelii entry))
T1 construct: not shown: histidine tag added to the N-terminus
T1 chain: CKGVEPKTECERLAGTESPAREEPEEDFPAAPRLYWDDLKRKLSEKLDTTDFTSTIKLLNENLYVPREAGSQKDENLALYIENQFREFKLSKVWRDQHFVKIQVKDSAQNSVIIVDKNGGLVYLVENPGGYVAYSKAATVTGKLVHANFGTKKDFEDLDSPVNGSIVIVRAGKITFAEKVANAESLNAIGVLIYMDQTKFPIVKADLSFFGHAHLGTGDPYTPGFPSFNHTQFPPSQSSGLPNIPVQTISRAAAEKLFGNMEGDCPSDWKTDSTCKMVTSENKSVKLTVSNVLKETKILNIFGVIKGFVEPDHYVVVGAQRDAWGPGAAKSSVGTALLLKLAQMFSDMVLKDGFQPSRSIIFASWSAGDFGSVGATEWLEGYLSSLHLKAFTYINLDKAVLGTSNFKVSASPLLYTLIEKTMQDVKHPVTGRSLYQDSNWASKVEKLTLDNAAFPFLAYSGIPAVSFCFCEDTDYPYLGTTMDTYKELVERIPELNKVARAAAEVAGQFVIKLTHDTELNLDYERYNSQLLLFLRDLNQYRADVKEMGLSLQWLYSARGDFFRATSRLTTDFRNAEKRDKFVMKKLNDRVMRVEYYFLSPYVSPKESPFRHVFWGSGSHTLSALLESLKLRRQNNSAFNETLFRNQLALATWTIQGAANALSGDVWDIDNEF

B1: hBDNF-anti-hTfR antibody (3N) 2 (Fc fusion)
heavy: HSDPARRGELSVCDSISEWVTAADKKTAVDMSGGTVTVLEKVPVSKGQLKQYFYETKCNPMGYTKEGCRGIDKRHWNSQCRTTQSYVRALTMDSKKRIGWRFIRIDTSCVCTLTIKRGRGGGGSGGGGSGGGGSGGGGSGGGGS[human IgG1 Fc not listed]GGGGSGGGGSGGGGSGGGGSGGGGSEVQLVQSGAEVKKPGESLKISCKGSGYSFMNYWLGWVRQMPGKGLEWMGDIYPGGDYPTYSEKFKVQVTISADKSISTAYLQLSSLKASDTAMYYCARSGNYDEVAYWGQGTLVTVSSASTKGPSVFPLAPSSKSTSGGTAALGCLVKDYFPEPVTVSWNSGALTSGVHTFPAVLQSSGLYSLSSVVTVPSSSLGTQTYICNVNHKPSNTKVDKKVEPKSCDKTHT
light: DIVMTQTPLSLSVTPGQPASISCRSSQSLVHSNGNTYLHWYLQKPGQSPQLLIYKVSNRFSGVPDRFSGSGSGTDFTLKISRVEAEDVGVYYCSQSTHVPWTFGQGTKVEIKRTVAAPSVFIFPPSDEQLKSGTASVVCLLNNFYPREAKVQWKVDNALQSGNSQESVTEQDSKDSTYSLSSTLTLSKADYEKHKVYACEVTHQGLSSPVTKSFNRGEC
B2: Fc-Fab (3N), hFc-humanized anti-hTfR antibody (Fc fusion)
heavy: [human IgG1 Fc not listed]GGGGSGGGGSGGGGSGGGGSGGGGSEVQLVQSGAEVKKPGESLKISCKGSGYSFMNYWLGWVRQMPGKGLEWMGDIYPGGDYPTYSEKFKVQVTISADKSISTAYLQLSSLKASDTAMYYCARSGNYDEVAYWGQGTLVTVSSASTKGPSVFPLAPSSKSTSGGTAALGCLVKDYFPEPVTVSWNSGALTSGVHTFPAVLQSSGLYSLSSVVTVPSSSLGTQTYICNVNHKPSNTKVDKKVEPKSCDKTHT
light: B1 light
notes: Fab of No. 3N with a human IgG Fc region at the N-terminal side of the Fab heavy chain; no BDNF

Key:
[1] = biological target: human TrkB (GenBank Acc. No. NP_001018074.1) expressed in CHO cells (CHO-TrkB cells) (human, UniProt Q16620 32-822); assay: cell-based or functional assay
[2] = biological target: T1, recombinant monkey TfR (r monkey TfR, …); assay: BLI (OctetRED96); His-tagged TfR extracellular region loaded on Ni-NTA biosensor, antibody in solution
Procedure: (§1) The affinity of the anti-hTfR antibody to human TfR and monkey TfR were measured on OctetRED96 (ForteBio Corporation, a division of Pall Corporation), a analysis system for biomolecular interaction utilizing Biolayer Interferometry (BLI). The basic principles of the biolayer interferometry are briefly explained below. When light of a specific wavelength is projected down toward the layer of immobilized biomolecules on the surface of sensor chip, lights reflect from each two layers of biomolecule and internal reference, produce interference wave of the light. As molecules in a analyte sample bind to biomoleculer of a sensor chip surface, the thickness of a layer at a sensor tip increases, which results in a shift of interference wave. By measuring a change in the wavelength shift, quantitation of number of molecules bound to biomolecules immobilized onto the sensor chip surface and kinetics analysis of it can be performed in real time. The measurement was generally performed by operation manual attached to the OctetRED96. As human TfR, a recombinant human TfR (r human TfR: Sino Biological Inc.) was used, which had the amino acid sequence of the extracellular region of hTfR, i.e. the cysteine residue at the 89th position from the N-terminus to the phenylalanine at the C-terminus of the amino acid sequence set forth as SEQ ID NO: 1, with a histidine tag added to the N-terminus. As monkey TfR, a recombinant monkey TfR (r monkey TfR: Sino Biological Inc.) was used, which had the amino acid sequence of the extracellular region of a cynomolgus monkey, i.e. the cysteine residue at the 89th position from the N-terminus to the phenylalanine of the C-terminus of the amino acid sequence set forth as SEQ ID NO: 2, with a histidine tag added to the N-terminus.
(§2) After OctetRED96 was run under the condition shown in the following Table 2 to collect data, the binding interaction curve was fitted to a 1:1 binding model or to a 2:1 binding model using the analysis software attached to the OctetRED96, the association rate constant (kon) and the dissociation rate constant (koff) of anti-hTfR antibody to r human TfR and r monkey TfR were measured, and the dissociation constants (KD) were calculated. The measurement was performed at 25° C. to 30° C.

[3] = biological target: T2, recombinant human TfR (r human TfR, Sino Biological Inc.), extracellular region of hTfR with N-terminal … (human, UniProt P02786); assay: as above
T2 construct: also called r human TfR-ECD (Histag); recombinant hTfR; not shown: histidine tag added to the N-terminus
Procedure: as §1, §2

UniProt Q16620, sequence (Q16620 32-822): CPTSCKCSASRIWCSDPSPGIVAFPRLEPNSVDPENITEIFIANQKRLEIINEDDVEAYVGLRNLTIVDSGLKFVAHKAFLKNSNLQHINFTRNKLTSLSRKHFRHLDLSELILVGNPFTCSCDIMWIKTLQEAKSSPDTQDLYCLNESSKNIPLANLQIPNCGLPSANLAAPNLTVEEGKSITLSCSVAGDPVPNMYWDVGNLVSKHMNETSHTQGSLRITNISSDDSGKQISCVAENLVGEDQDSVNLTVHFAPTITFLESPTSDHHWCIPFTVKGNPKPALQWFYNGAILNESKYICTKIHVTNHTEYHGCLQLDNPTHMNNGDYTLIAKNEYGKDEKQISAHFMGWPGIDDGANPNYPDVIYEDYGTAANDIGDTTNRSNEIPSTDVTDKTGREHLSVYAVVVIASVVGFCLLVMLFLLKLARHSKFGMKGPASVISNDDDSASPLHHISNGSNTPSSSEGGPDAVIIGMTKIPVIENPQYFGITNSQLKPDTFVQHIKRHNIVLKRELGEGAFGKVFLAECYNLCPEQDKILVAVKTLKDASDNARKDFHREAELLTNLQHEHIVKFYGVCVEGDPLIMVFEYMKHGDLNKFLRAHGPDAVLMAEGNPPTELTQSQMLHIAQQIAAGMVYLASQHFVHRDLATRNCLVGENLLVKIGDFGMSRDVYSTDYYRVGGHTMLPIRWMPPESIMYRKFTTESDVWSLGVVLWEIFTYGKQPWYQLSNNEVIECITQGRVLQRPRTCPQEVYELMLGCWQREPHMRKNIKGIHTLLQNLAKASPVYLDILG

Binder	BDNF activity (TrkB agonistic: EC50, nmol/L) [1] [nmol/L]	Kd [2] [nM]	koff [2] [s⁻¹]	kon [2] [M⁻¹ s⁻¹]	Kd [3] [nM]	koff [3] [s⁻¹]	kon [3] [M⁻¹ s⁻¹]
B1	0.2	–	–	–	–	–	–
B2	–	0.861	0.000209	243000	< 0.001	< 1e-07	667000
